The text below walks through data of the supplement of paper PMC11417369.

± gives the standard deviation of the averaged measurements. The list shows a part of the results.

The test system of this assay is PfAP2-I AP2 domain 3 (GST-tagged). The assay is described as follows: gcPBM binding intensity (ln(normalized median fluorescence intensity)); higher = stronger DNA binding. The method, boiled down: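 Probes on an Agilent 4 × 180k array were primer-extended, double-stranded and 36 bp long, taken from intergenic genomic regions, with negative controls added. GST-tagged P. falciparum DNA-binding domains from E. coli, about 25 μg on average, were applied to the array for 1 h in 1× PBS containing 1% milk, 0.2 mg/ml BSA, 0.5% salmon testes DNA and 0.03% Triton X-100. Binding intensity, obtained after Alexa488 anti-GST antibody detection and a 488 nm scan, is the highest Masliner-normalised natural-log median intensity across replicate spots of either probe orientation.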
Consider “TATATAAATGTATACACACACATATAAATATAAATA [CACACA_site6751]”, for which the “gcPBM binding intensity (ln)” value amounted to 7.68 ± 0.33.
On to “ATAAACAGATCATATACATGCATATATGTAGAATAA [TGCATGCA_site157]”, for which the “gcPBM binding intensity (ln)” value was 7.68 ± 0.72.
Next, “TGTTTAACATTTATATGTACATATATTCACATATTA [XGTACX_site342]”: 7.92 ± 0.49; “TGATTTTTTTTTTTTTTTTTTTTTTTTTTAGTTTGC [CACACA_negctrl_site1057]”: 7.62 ± 0.28; “TAAAATATAAGACACACACACATATATTTATATATC [CACACA_site6248]”: 7.94 ± 0.58.
Next, “TACCAAATCACCCCTTGTACCCATTTTAAAATTTTC [XGTACX_site396]”: 8.26 ± 0.59; “TTATGTTATAAATACACACACAAAAGAAAAAAAAAA [CACACA_site7414]”: 7.98 ± 0.62; “TCCCATAATATTAGTAGTACTATTAATATTTTCAGG [XGTACX_site4925]”: 7.51 ± 0.45.
Regarding “TTCTCTATAAATGCTGCACACACATTTAATTATTTA [CACACA_site8828]”, the “gcPBM binding intensity (ln)” value is 8.98 ± 0.34.
As for “ATTTCTTTTTTTTCTTGTACACATATTAAATTTATG [XGTACX_site734]”, the “gcPBM binding intensity (ln)” value turned out to be 8.22 ± 0.2.
Take “TCTAAACAAATTAATAAAATAAGTATTCAAAATTAT [CACACA_negctrl_site731]”: the “gcPBM binding intensity (ln)” value was found to be 7.4 ± 0.67.
With “AATATTTATTTTTTTGCACACATATTTTACATTTTA [CACACA_site3182]”, the “gcPBM binding intensity (ln)” value was 9.61 ± 0.22.
As for “GTAAAATTTCGGATTTGTACACATGGCTATGAAAAA [XGTACX_site939]”, the “gcPBM binding intensity (ln)” value was found to be 8.01 ± 0.67.
Next, “AAAAAGCAGGATTATACACACAAATATTTATATGTT [CACACA_site6634]”: 7.51 ± 0.53; “GCGTAGTTCGGAAGGGTGCTTTTTTGTTAATAAAAA [GTGCAC_site9592]”: 8.97 ± 0.28; “TATAAACAGACGAAAACACACATATGTAAATATATA [CACACA_site4428]”: 7.67 ± 0.66.
As for “ATAAAAATAATATCATGTACATATGTGTATTGTATT [XGTACX_site1768]”, the “gcPBM binding intensity (ln)” value worked out at 7.89 ± 0.48.
For the sequence “TACAAAAAGTTATACACACACGTACCTATAAATAGA [CACACA_site6571]”, the “gcPBM binding intensity (ln)” value was determined as 7.81 ± 0.33.
Consider “TATTTCTTTTGGTTGGTGCATAAAATAATACAATAT [GTGCAC_site9916]”, for which the “gcPBM binding intensity (ln)” value was 11.2 ± 0.59.
Turning to “CAGACCTCTTTGTCATGTACATAAAAAAATAAAGAA [XGTACX_site7887]”, the “gcPBM binding intensity (ln)” value stood at 8.21 ± 0.49.
On to “ACGAATTAAATGGATTAATATATATATGTATATTTA [CACACA_negctrl_site1512]”, for which the “gcPBM binding intensity (ln)” value was determined as 7.38 ± 0.3.
Next, “TTAAATACTTTTCGAAGTACATTATATATATAATAT [XGTACX_site7530]”: 7.63 ± 0.28; “CGCAACACTATTTGGGTGCTCTTCAAAAAAAAAAAA [GTGCAC_site9598]”: 9.25 ± 0.34.
Take “AGAATATATATAATAGTGCAATGTACAATGAACAAA [GTGCAC_site9577]”: the “gcPBM binding intensity (ln)” value worked out at 9.42 ± 0.042.
With “TCCATTCTATTTTTTACACACGTATGTAAATATTAT [CACACA_site2686]”, the “gcPBM binding intensity (ln)” value amounted to 7.96 ± 0.49.
For “ATTTGCTTTTATTTTACACACTTGCTCCTGTTGTAC [CACACA_site1088]”, the “gcPBM binding intensity (ln)” value turned out to be 8.29 ± 1.
Consider “AAAAAAAAATATATTGCACACCTCTCAATAAAAAAA [CACACA_site172]”, for which the “gcPBM binding intensity (ln)” value came out at 10.3 ± 0.43.
For the sequence “CGACTTTTAAAATATACACACATATATATATATATA [CACACA_site825]”, the “gcPBM binding intensity (ln)” value turned out to be 9.47 ± 0.46.
As to “ATAAATGAAGATAAATTAAAAAAAAAAAAAAAAAAA [CACACA_negctrl_site992]”, the “gcPBM binding intensity (ln)” value was 8.06 ± 0.54.
Turning to “GAATGTATTCATAAATGTACTTATAATATTATAATA [XGTACX_site3466]”, the “gcPBM binding intensity (ln)” value stood at 7.74 ± 0.49.
Turning to “ATAACATACATAACAACACACAATATTTATATGTAT [CACACA_site210]”, the “gcPBM binding intensity (ln)” value was found to be 7.75 ± 0.45.
Next, “AATACATAAATATTTTGTACATATTATATAAAATAT [XGTACX_site1627]”: 7.63 ± 0.45; “CTTGTACCTAGAAATACACACAATTATATAACTTAT [CACACA_site2838]”: 7.8 ± 0.46.
Turning to “ATGAAAAAAAAAAAAAAAAAAAAAAAAAAAAAAAAA [CACACA_negctrl_site1405]”, the “gcPBM binding intensity (ln)” value was found to be 8.68 ± 1.1.
For “ACTTTTTAATAATAATAATTATATATATATATATAT [TGCATGCA_negctrl_site459]”, the “gcPBM binding intensity (ln)” value was 9.16 ± 0.014.
“ATATATATTTAATTTACACACAAAAAAAATTGTTGG [CACACA_site961]”: the “gcPBM binding intensity (ln)” value came to 7.67 ± 0.65.
On to “TATAAGAAAATAATGTGTACTAAATAATAAATGCAT [XGTACX_site1204]”, for which the “gcPBM binding intensity (ln)” value stood at 8.35 ± 0.46.
As to “CCACATGAGATGATTACACACATATAAATATTTACA [CACACA_site6222]”, the “gcPBM binding intensity (ln)” value came out at 7.84 ± 0.54.
Turning to “TAATGACTGAAAAATTGTACATATGTATATATGTAT [XGTACX_site2415]”, the “gcPBM binding intensity (ln)” value was 7.92 ± 0.7.
Turning to “ATTCTATTATAATATTCACACACTAACGTAAATCAT [CACACA_site2750]”, the “gcPBM binding intensity (ln)” value is 8.05 ± 0.33.
Take “TATACATACATACATACACACACACCGATATATATA [CACACA_site7896]”: the “gcPBM binding intensity (ln)” value was 8.16 ± 0.52.
On to “ATAATTTTCCATATTTGTACATATTTTTTTCCCTTG [XGTACX_site8146]”, for which the “gcPBM binding intensity (ln)” value came to 8.01 ± 0.76.
Regarding “AATTTAAATTAGAATTGTACTAGAAAAGGAATATAT [XGTACX_site6162]”, the “gcPBM binding intensity (ln)” value amounted to 8.12 ± 0.44.
Consider “AATATAAATAAAAACACACACAATGGTACAGATATA [CACACA_site5930]”, for which the “gcPBM binding intensity (ln)” value came to 8.02 ± 0.47.
Next, “AATTATATAATCTTATAACATAATATAATAACATTT [CACACA_negctrl_site187]”: 7.41 ± 0.45; “CATACATACGGACACACACACATATATATATATATA [CACACA_site5598]”: 9.26 ± 0.42.
As for “ATAATGTTTCTTTCAACACACAAAAAATGAACACAT [CACACA_site1552]”, the “gcPBM binding intensity (ln)” value came out at 8.03 ± 0.66.
As to “AAAAAAGAAAAAAGGACACACATAAATATACTCACG [CACACA_site2904]”, the “gcPBM binding intensity (ln)” value stood at 7.8 ± 0.57.
Next, “AAAAAAAAAAAATAGACCTCCTAAGCAAAAGAAAAA [GTGCAC_negctrl_site634]”: 7.82 ± 0.15; “TATATAAGCGCATGCACACGCAAAGGTATATAAATA [CACACA_site622]”: 8.03 ± 0.56.
For “TAAAAAATATTATATACACACAGTATAAAAAAAAAT [CACACA_site4012]”, the “gcPBM binding intensity (ln)” value stood at 7.66 ± 0.62.
Regarding “TTATCCTATACAAGGGAAAAATAAAATAAAATAAAT [TGCATGCA_negctrl_site272]”, the “gcPBM binding intensity (ln)” value worked out at 7.53 ± 0.68.
Turning to “AGTGTCATATAAAATTGTACTTTTTTTTTTTTCTTT [XGTACX_site5651]”, the “gcPBM binding intensity (ln)” value worked out at 8.42 ± 0.31.
On to “ATATACATATTATAATGTACATATTTTAATAACCTT [XGTACX_site7617]”, for which the “gcPBM binding intensity (ln)” value came to 7.72 ± 0.43.
In the case of ATTGATTATTTTCTAGTGCATAAAATAATTTTTTTT, the “gcPBM binding intensity (ln)” value turned out to be 10.5 ± 0.51.
With “TAAGAAAGACAAAAAAAATGAAAAGAAAAAAAATGA [CACACA_negctrl_site1469]”, the “gcPBM binding intensity (ln)” value was found to be 7.51 ± 0.65.
